The values that follow come from publication PMC2727002.

In one assay the target is T1, Tap-tagged Mtr4 (yeast) (UniProt P47047).
T1 sequence: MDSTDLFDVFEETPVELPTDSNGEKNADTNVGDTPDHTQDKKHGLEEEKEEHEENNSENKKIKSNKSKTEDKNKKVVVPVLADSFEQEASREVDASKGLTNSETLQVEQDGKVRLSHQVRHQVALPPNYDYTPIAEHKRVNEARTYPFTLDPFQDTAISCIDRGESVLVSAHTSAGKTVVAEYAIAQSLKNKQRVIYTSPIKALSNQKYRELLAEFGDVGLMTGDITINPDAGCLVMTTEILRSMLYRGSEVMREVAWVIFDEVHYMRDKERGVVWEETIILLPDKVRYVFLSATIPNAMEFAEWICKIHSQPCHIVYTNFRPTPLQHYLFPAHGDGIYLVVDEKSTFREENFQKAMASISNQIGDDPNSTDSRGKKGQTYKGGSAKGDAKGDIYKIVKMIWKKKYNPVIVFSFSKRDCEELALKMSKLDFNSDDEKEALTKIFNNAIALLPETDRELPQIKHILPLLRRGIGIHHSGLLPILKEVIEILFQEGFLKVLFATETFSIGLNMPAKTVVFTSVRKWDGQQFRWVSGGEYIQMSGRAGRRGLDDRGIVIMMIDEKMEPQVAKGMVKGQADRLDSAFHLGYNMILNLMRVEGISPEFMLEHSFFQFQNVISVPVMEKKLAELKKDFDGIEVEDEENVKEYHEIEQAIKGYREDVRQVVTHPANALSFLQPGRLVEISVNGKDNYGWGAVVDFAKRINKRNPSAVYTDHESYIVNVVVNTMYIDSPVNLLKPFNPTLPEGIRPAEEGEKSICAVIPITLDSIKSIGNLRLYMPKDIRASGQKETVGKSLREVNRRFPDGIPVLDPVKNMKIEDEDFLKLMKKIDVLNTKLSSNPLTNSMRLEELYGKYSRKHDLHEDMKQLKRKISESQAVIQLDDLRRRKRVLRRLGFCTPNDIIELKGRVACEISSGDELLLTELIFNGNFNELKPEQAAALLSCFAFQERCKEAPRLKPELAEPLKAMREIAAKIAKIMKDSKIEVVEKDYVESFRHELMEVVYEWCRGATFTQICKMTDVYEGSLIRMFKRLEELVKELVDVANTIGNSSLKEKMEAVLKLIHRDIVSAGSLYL
Nature of the assay: co-IP; Tap-tagged Mtr4 or Tap-tagged Air1, polyclonal antibodies against the Ccr4-Not complex subunits; data not shown.

The target in the next assay is T2, Tap-tagged Rrp41 (yeast) (UniProt P46948).
T2 sequence: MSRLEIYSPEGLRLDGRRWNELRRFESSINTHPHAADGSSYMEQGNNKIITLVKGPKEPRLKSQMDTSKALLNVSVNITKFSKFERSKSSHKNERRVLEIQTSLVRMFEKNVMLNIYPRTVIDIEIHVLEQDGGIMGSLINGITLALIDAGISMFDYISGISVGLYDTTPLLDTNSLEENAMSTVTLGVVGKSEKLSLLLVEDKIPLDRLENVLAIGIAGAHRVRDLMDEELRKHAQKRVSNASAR
Nature of the assay: co-IP; tandem affinity purification of Tap-tagged Rrp41 from 2 g of wild-type total extract treated with RNAse A (for Rrp4 and Rrp43: treated or not); eluate blotted with antibodies against CBP, Rrp4, Rrp43 and Not5.

In the next assay the target is T3, Tap-tagged Rrp6 (yeast) (UniProt Q12149).
T3 sequence: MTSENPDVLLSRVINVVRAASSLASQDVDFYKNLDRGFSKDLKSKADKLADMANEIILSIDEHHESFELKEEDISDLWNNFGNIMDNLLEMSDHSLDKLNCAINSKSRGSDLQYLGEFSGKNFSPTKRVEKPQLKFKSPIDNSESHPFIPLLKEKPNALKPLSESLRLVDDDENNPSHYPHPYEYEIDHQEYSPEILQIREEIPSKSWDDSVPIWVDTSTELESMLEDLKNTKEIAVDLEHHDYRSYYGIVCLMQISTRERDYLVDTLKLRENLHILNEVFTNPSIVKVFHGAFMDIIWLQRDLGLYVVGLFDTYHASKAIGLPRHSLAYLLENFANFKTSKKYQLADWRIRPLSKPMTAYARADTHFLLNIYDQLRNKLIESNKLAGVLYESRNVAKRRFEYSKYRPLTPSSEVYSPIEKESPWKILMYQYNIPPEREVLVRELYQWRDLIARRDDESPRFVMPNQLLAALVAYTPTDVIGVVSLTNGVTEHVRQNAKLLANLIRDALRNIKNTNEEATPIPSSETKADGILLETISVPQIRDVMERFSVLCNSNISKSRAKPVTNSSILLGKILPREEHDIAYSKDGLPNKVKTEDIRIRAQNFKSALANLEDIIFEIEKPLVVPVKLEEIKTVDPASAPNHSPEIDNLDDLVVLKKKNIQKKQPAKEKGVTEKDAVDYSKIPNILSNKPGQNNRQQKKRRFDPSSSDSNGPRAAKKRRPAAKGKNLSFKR
Description: co-IP; single affinity step: extracts (60 mg or 2 g) of wild-type and ccr4-not mutant strains (other than caf40Δ) expressing Tap-tagged Rrp6 incubated with IgG beads, eluted by TEV cleavage; western blot with antibodies against CBP, Mtr4, Rrp43, Rrp4.

Results are given in words; binding and its absence hold for the method and conditions named. In cells and extracts the contact can be indirect. Some entries that bind do so weakly or less than the wild type. Sequences can lack the tags named with a protein.

B1: Ccr4 (protein, UniProt P31384 1-837)
chain: MNDPSLLGYPNVGPQQQQQQQQQQHAGLLGKGTPNALQQQLHMNQLTGIPPPGLMNNSDVHTSSNNNSRQLLDQLANGNANMLNMNMDNNNNNNNNNNNNNNNGGGSGVMMNASTAAVNSIGMVPTVGTPVNINVNASNPLLHPHLDDPSLLNNPIWKLQLHLAAVSAQSLGQPNIYARQNAMKKYLATQQAQQAQQQAQQQAQQQVPGPFGPGPQAAPPALQPTDFQQSHIAEASKSLVDCTKQALMEMADTLTDSKTAKKQQPTGDSTPSGTATNSAVSTPLTPKIELFANGKDEANQALLQHKKLSQYSIDEDDDIENRMVMPKDSKYDDQLWHALDLSNLQIFNISANIFKYDFLTRLYLNGNSLTELPAEIKNLSNLRVLDLSHNRLTSLPAELGSCFQLKYFYFFDNMVTTLPWEFGNLCNLQFLGVEGNPLEKQFLKILTEKSVTGLIFYLRDNRPEIPLPHERRFIEINTDGEPQREYDSLQQSTEHLATDLAKRTFTVLSYNTLCQHYATPKMYRYTPSWALSWDYRRNKLKEQILSYDSDLLCLQEVESKTFEEYWVPLLDKHGYTGIFHAKARAKTMHSKDSKKVDGCCIFFKRDQFKLITKDAMDFSGAWMKHKKFQRTEDYLNRAMNKDNVALFLKLQHIPSGDTIWAVTTHLHWDPKFNDVKTFQVGVLLDHLETLLKEETSHNFRQDIKKFPVLICGDFNSYINSAVYELINTGRVQIHQEGNGRDFGYMSEKNFSHNLALKSSYNCIGELPFTNFTPSFTDVIDYIWFSTHALRVRGLLGEVDPEYVSKFIGFPNDKFPSDHIPLLARFEFMKTNTGSKKV
For B1, in the assay with Tap-tagged Mtr4 (yeast), the binding result is “binds”.

B2: Rrp43 (protein, UniProt P25359 1-394)
chain: MAESTTLETIEIHPITFPPEVLARISPELSLQRHLSLGIRPCLRKYEEFRDVAIENNTLSRYADAGNIDTKNNILGSNVLKSGKTIVITSITGGIIEETSAAIKDLDDFGEEELFEVTKEEDIIANYASVYPVVEVERGRVGACTDEEMTISQKLHDSILHSRILPKKALKVKAGVRSANEDGTFSVLYPDELEDDTLNETNLKMKRKWSYVLYAKIVVLSRTGPVFDLCWNSLMYALQSVKLPRAFIDERASDLRMTIRTRGRSATIRETYEIICDQTKSVPLMINAKNIAFASNYGIVELDPECQLQNSDNSEEEEVDIDMDKLNTVLIADLDTEAEETSIHSTISILAAPSGNYKQLTLVGGGAKITPEMIKRSLLLSRVRADDLSTRFNI
On to B2, for which the binding entry in the assay with Tap-tagged Rrp41 (yeast) and in the assay with Tap-tagged Rrp6 (yeast) was “binds” each time.

B3: Rrp4 (protein, UniProt P38792 1-359)
chain: MSEVITITKRNGAFQNSSNLSYNNTGISDDENDEEDIYMHDVNSASKSESDSQIVTPGELVTDDPIWMRGHGTYFLDNMTYSSVAGTVSRVNRLLSVIPLKGRYAPETGDHVVGRIAEVGNKRWKVDIGGKQHAVLMLGSVNLPGGILRRKSESDELQMRSFLKEGDLLNAEVQSLFQDGSASLHTRSLKYGKLRNGMFCQVPSSLIVRAKNHTHNLPGNITVVLGVNGYIWLRKTSQMDLARDTPSANNSSSIKSTGPTGAVSLNPSITRLEEESSWQIYSDENDPSISNNIRQAICRYANVIKALAFCEIGITQQRIVSAYEASMVYSNVGELIEKNVMESIGSDILTAEKMRGNGN
Regarding B3, the binding result with Tap-tagged Rrp41 (yeast) and in the assay with Tap-tagged Rrp6 (yeast) was “binds” in each case.

B4: Caf1 (protein, UniProt P39008 1-433)
chain: MQSMNVQPRVLAVGGEQFFSQRQASEQHQQQNMGPQVYSPKVNRARMFPQGMPVNTINGSVNQEMNNAYLLKQKNEPLLTQQQQQQQQQQQPFNIGTPVSVASLPPGLNVLQQQQQQQQQQQQQQQGVGLNRPLASQLPKHLTNQSMPPIFLPPPNYLFVRDVWKSNLYSEFAVIRQLVSQYNHVSISTEFVGTLARPIGTFRSKVDYHYQTMRANVDFLNPIQLGLSLSDANGNKPDNGPSTWQFNFEFDPKKEIMSTESLELLRKSGINFEKHENLGIDVFEFSQLLMDSGLMMDDSVTWITYHAAYDLGFLINILMNDSMPNNKEDFEWWVHQYMPNFYDLNLVYKIIQEFKNPQLQQSSQQQQQQQYSLTTLADELGLPRFSIFTTTGGQSLLMLLSFCQLSKLSMHKFPNGTDFAKYQGVIYGIDGDQ
As to B4, in the assay with Tap-tagged Mtr4 (yeast), the binding result was “binds”.
